Laboratory results reported in the antibiotic and cytotoxicity screens of Wong et al. (2023).
The list shows a part of the results.

tested on: HepG2; assay: cytotoxicity call (relative viability < 0.9); details: 10 µM

| Compound | cytotoxicity call |
| --- | --- |
| O=C(O)C[C@@H](NCCN[C@H](CC(=O)O)C(=O)O)C(=O)O | inactive |
| COCCNC(=O)C[C@@H]1C[C@@H]2c3cc(NC(=O)CN(C)C)ccc3O[C@@H]2[C@@H](CO)O1 | inactive |
| C[C@H](CO)N1C[C@H](C)[C@H](CN(C)S(C)(=O)=O)OCCCC[C@H](C)Oc2ccc(NS(=O)(=O)c3cccs3)cc2C1=O | inactive |
| O=C(C[C@@H]1C=C[C@H](NC(=O)Nc2cc(F)ccc2F)[C@@H](CO)O1)NCCCN1CCOCC1 | inactive |
| C[C@H]1CN([C@@H](C)CO)C(=O)c2cccc(NC(=O)Nc3ccc4c(c3)OCO4)c2O[C@@H]1CN(C)C(=O)Nc1ccc(C(F)(F)F)cc1 | inactive |
| Cc1noc(C)c1NC(=O)N(C)C[C@@H]1Oc2ccc(NS(=O)(=O)c3ccccc3)cc2C(=O)N([C@@H](C)CO)C[C@H]1C | inactive |
| Cc1noc(C)c1NC(=O)N(C)C[C@@H]1Oc2ccc(NC(=O)NC(C)C)cc2CC(=O)N([C@@H](C)CO)C[C@@H]1C | inactive |
| Cc1noc(C)c1NC(=O)N(C)C[C@@H]1Oc2ccc(NC(=O)CCN3CCOCC3)cc2CC(=O)N([C@@H](C)CO)C[C@H]1C | inactive |
| C[C@@H]1CCCCO[C@H](CN(C)CC2CCCCC2)[C@H](C)CN([C@@H](C)CO)C(=O)c2cc(NC(=O)C3CCCCC3)ccc2O1 | inactive |
| C[C@H](CO)N1C[C@H](C)[C@H](CN(C)CC2CCCCC2)Oc2ccc(NC(=O)Nc3ccc(F)cc3)cc2C1=O | inactive |
| C[C@@H]1CCCCO[C@@H](CN(C)Cc2ccc(C(=O)O)cc2)[C@@H](C)CN([C@@H](C)CO)C(=O)c2cc(NS(=O)(=O)c3cccs3)ccc2O1 | inactive |
| CC(C)NC(=O)Nc1ccc2c(c1)CC(=O)N([C@H](C)CO)C[C@@H](C)[C@H](CN(C)S(=O)(=O)c1ccc(Cl)cc1)O2 | inactive |
| COc1ccc(S(=O)(=O)Nc2cccc3c2O[C@H](CN(C)S(=O)(=O)c2ccc(F)cc2)[C@H](C)CN([C@H](C)CO)C3=O)cc1 | inactive |
| C[C@H](CO)N1C[C@H](C)[C@H](CN(C)Cc2ccc(Oc3ccccc3)cc2)Oc2ccc(NC(=O)Nc3cccc4ccccc34)cc2C1=O | active |
| COc1ccc(CN(C)C[C@H]2OCCCC[C@H](C)Oc3ccc(NC(=O)Nc4ccc5c(c4)OCO5)cc3C(=O)N([C@H](C)CO)C[C@@H]2C)cc1 | inactive |
| Cc1noc(C)c1NC(=O)Nc1ccc2c(c1)C(=O)N([C@H](C)CO)C[C@H](C)[C@@H](CN(C)C(=O)C1CCCCC1)OCCCC[C@H](C)O2 | inactive |
| COCC(=O)Nc1ccc2c(c1)OC[C@H](C)N(Cc1cccc(F)c1)C[C@@H](C)[C@@H](OC)CN(C)C2=O | inactive |
| COc1ccc(NC(=O)Nc2cccc3c2O[C@@H](CN(C)CC2CCCCC2)[C@H](C)CN([C@H](C)CO)C3=O)cc1 | inactive |
| CC(C)NC(=O)N[C@H]1CCCCNC1=O | inactive |
| CC(C)NC(=O)N(C)C[C@@H]1Oc2c(NC(=O)NC3CCCCC3)cccc2C(=O)N([C@@H](C)CO)C[C@@H]1C | inactive |
| CC(=O)N1CCCN(S(=O)(=O)N2CCOCC2)CC1 | inactive |
| Cc1noc(C)c1NC(=O)N(C)C[C@@H]1OCCCC[C@H](C)Oc2ccc(NS(=O)(=O)c3ccc(F)cc3)cc2C(=O)N([C@@H](C)CO)C[C@@H]1C | inactive |
| COc1ccc(S(=O)(=O)N(C)C[C@@H]2Oc3c(NS(=O)(=O)c4ccccc4)cccc3C(=O)N([C@@H](C)CO)C[C@@H]2C)cc1 | inactive |
| C[C@@H]1CN([C@@H](C)CO)C(=O)Cc2cc(NC(=O)NC3CCCCC3)ccc2O[C@H]1CN(C)C(=O)Nc1cccc2ccccc12 | inactive |
| COCCNC(=O)C[C@@H]1C[C@H]2c3cc(NC(=O)Nc4ccc(C(F)(F)F)cc4)ccc3O[C@H]2[C@@H](CO)O1 | inactive |
| C[C@H](CO)N1C[C@H](C)[C@@H](CN(C)C(=O)Nc2cc(F)ccc2F)Oc2cc(/C=C/c3ccccc3)ccc2S1(=O)=O | inactive |
| O=C(NCC1CC1)c1cc2c(c(-c3cccc(-c4ccccc4F)c3)n1)[C@@H](CCO)N(C(=O)CC1CC1)C2 | inactive |
| COc1ccc(S(=O)(=O)N(C)C[C@@H]2OCCCC[C@@H](C)Oc3ccc(NC(=O)Nc4c(C)noc4C)cc3C(=O)N([C@H](C)CO)C[C@@H]2C)cc1 | inactive |
| Cc1noc(C)c1NC(=O)N(C)C[C@@H]1Oc2ccc(NS(C)(=O)=O)cc2C(=O)N([C@@H](C)CO)C[C@H]1C | inactive |
